Experiment [1] concerns the target RalGAPα2 (RGα2), full length, co-expressed in Expi293F and purified by FLAG affinity (UniProt Q2PPJ7). As to the kind of experiment: co-purification (FLAG affinity, SEC); full-length subunits co-expressed in Expi293F; lysis buffer F (50 mM Tris-HCl pH 7.5, 150 mM NaCl, 1 mM MgCl2, 5% glycerol, 1% Triton-X100); M2 anti-FLAG beads, 3xFLAG peptide elution; size exclusion chromatography. A general note: SEC sorts molecules by how far they enter the pores of the column.

Sequences of proteins named here, by UniProt entry; tags and fusion partners are left off. A change or cut given only in a name is not applied to a line headed by its entry. A line that says so, or that is headed by a name, gives the form on record, which may keep a tag or linker.
UniProt Q2PPJ7: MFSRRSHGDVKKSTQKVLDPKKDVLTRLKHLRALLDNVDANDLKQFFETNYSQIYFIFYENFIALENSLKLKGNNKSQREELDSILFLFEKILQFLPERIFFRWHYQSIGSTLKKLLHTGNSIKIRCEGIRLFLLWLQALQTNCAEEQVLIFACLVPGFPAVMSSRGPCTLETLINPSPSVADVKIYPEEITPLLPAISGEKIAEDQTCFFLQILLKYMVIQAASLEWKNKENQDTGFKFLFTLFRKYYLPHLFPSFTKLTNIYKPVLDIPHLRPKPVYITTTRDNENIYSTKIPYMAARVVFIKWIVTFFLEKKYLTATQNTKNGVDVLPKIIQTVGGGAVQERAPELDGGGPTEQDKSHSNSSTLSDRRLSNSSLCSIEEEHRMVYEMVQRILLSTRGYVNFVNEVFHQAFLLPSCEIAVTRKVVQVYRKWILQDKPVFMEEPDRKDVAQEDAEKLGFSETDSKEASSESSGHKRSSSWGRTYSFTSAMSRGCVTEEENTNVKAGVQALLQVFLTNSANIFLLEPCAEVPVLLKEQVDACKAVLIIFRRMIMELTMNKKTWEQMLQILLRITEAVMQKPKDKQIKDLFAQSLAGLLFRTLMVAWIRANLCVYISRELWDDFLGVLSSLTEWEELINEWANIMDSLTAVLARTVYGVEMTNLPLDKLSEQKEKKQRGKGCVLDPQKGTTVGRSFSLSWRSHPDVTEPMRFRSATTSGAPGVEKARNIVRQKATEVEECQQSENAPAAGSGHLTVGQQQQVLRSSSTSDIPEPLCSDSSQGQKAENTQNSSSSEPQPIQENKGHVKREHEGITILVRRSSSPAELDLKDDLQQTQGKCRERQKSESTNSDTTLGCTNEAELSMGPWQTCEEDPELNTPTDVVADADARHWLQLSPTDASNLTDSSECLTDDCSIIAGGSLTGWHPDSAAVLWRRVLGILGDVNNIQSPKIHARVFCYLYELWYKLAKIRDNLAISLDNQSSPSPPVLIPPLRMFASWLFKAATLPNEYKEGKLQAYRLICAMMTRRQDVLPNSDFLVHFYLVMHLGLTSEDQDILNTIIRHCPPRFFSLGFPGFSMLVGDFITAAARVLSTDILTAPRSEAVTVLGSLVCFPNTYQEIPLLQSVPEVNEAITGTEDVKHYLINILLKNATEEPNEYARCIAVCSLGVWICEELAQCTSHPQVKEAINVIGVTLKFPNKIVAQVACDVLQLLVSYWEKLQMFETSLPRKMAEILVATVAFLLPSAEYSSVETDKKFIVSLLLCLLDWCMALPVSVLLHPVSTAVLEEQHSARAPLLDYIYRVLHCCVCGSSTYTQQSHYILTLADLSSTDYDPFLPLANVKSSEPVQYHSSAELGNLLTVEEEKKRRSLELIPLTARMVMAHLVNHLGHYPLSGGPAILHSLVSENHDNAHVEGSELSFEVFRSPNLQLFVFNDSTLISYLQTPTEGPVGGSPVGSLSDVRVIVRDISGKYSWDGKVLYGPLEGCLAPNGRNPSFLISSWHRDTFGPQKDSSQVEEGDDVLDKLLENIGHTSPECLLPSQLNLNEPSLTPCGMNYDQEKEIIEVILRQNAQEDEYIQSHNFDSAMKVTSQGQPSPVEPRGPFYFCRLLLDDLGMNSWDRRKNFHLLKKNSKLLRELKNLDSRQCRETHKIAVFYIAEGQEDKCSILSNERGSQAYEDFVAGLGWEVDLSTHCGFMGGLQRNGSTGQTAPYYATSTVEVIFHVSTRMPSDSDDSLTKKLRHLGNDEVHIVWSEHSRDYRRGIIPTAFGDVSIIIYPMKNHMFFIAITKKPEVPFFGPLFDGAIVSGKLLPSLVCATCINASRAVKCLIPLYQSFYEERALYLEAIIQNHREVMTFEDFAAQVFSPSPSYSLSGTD
RGα2^Δhug (lacking aa 1498-1593) (Q2PPJ7, form named): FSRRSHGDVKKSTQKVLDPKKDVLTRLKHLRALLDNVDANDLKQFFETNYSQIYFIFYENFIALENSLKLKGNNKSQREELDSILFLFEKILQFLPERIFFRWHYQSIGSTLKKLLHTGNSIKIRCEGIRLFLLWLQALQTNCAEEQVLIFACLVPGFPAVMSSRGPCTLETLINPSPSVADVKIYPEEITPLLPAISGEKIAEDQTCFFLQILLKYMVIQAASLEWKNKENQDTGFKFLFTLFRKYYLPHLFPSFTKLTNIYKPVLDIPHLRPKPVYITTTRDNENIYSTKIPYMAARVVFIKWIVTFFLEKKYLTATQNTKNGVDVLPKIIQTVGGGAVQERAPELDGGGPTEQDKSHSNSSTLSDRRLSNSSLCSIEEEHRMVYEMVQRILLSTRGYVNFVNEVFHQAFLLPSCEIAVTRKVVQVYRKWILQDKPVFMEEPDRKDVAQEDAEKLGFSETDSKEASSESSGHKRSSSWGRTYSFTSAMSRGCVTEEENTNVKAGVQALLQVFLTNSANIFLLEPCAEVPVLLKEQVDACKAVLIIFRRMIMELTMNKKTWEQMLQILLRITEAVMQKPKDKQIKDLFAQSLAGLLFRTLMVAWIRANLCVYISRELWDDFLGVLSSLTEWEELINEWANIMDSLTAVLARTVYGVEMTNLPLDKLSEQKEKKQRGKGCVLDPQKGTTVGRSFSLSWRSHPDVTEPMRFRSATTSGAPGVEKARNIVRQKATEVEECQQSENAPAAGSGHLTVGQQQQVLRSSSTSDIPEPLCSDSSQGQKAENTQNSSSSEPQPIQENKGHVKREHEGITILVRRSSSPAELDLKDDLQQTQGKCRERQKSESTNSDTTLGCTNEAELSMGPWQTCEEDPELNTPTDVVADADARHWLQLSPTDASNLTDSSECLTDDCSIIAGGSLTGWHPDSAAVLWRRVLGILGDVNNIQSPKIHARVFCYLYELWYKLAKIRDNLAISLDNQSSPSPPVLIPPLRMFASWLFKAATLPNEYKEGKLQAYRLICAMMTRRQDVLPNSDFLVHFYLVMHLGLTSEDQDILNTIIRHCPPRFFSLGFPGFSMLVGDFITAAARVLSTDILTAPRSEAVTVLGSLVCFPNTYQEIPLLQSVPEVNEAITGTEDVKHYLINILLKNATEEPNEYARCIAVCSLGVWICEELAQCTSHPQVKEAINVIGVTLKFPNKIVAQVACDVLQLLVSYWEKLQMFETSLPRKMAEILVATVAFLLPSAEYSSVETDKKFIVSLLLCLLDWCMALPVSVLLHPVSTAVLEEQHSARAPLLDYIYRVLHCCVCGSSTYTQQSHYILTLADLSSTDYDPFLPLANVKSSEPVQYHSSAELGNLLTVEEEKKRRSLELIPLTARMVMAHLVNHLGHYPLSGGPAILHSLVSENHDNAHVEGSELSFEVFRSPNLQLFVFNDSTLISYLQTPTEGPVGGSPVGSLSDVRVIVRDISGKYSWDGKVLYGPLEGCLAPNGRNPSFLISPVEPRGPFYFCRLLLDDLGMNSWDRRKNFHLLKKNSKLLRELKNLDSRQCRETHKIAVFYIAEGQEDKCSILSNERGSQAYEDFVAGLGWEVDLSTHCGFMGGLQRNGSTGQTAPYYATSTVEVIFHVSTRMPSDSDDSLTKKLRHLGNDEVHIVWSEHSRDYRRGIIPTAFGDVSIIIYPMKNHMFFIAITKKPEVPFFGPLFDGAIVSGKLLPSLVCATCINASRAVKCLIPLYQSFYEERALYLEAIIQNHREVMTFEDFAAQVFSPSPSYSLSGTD

Experiment [2] has as its target RGα2 full-length (RGα2^fl), transiently expressed in HEK293 cells for co-immunoprecipitation (UniProt Q2PPJ7). As to the kind of experiment: co-IP; transiently transfected HEK293T/HEK293FT cells; CoIP buffer 40 mM HEPES, 120 mM NaCl, 10 mM MgCl2, 0.3% CHAPS, pH 7.4; 3xflag beads 2-4 h; western blot.
Experiment [3] deals with RalGAPα2 (RGα2), full length, co-expressed in Expi293F and purified by FLAG affinity (UniProt Q2PPJ7). Briefly: co-purification (FLAG affinity); RGα2 co-expressed with RGβ fragments in Expi293F; lysis buffer C (50 mM Tris-HCl pH 7.5, 150 mM NaCl, 4 mM MgCl2, 5% glycerol, 0.3% CHAPS); M2 anti-FLAG beads, 3xFLAG peptide elution.
Experiment [4] addresses RGα2^Δhug (lacking aa 1498-1593) (UniProt Q2PPJ7). Briefly: co-IP; transiently transfected HEK293T/HEK293FT cells; CoIP buffer 40 mM HEPES, 120 mM NaCl, 10 mM MgCl2, 0.3% CHAPS, pH 7.4; 3xflag beads 2-4 h; western blot. For orientation: A western blot detects proteins with antibodies after separation by electrophoresis.

No constants are given. Whether binding was seen depends on the method and setting. For some assays here: Binding seen in cells or lysates may run through a third protein. Some binding calls cover weakened binding; strength is not graded here.

This passage reports binding results from paper PMC12311180.

B1: RGβ^D4 (V29E, V33Q, V37E, W65R), co-purified with RGα2 (protein, UniProt Q86X10 1-1494)
chain: MYSEWRSLHLVIQNDQGHTSVLHSYPESEGREQANAEVRPLGQVLGTPSVAGSENLLKTDKEVKRTMEVICYGLTLPLDGETVKYCVDVYTDWIMALVLPKDSIPLPVIKEPNQYVQTILKHLQNLFVPRQEQGSSQIRLCLQVLRAIQKLARESSLMARETWEVLLLFLLQINDILLAPPTVQGGIAENLAEKLIGVLFEVWLLACTRCFPTPPYWKTAKEMVANWRHHPAVVEQWSKVICALTSRLLRFTYGPSFPAFKVPDEDASLIPPEMDNECVAQTWFRFLHMLSNPVDLSNPAIISSTPKFQEQFLNVSGMPQELNQYPCLKHLPQIFFRAMRGISCLVDAFLGISRPRSDSAPPTPVNRLSMPQSAAVSTTPPHNRRHRAVTVNKATMKTSTVSTAHASKVQHQTSSTSPLSSPNQTSSEPRPLPAPRRPKVNSILNLFGSWLFDAAFVHCKLHNGINRDSSMTAITTQASMEFRRKGSQMSTDTMVSNPMFDASEFPDNYEAGRAEACGTLCRIFCSKKTGEEILPAYLSRFYMLLIQGLQINDYVCHPVLASVILNSPPLFCCDLKGIDVVVPYFISALETILPDRELSKFKSYVNPTELRRSSINILLSLLPLPHHFGTVKSEVVLEGKFSNDDSSSYDKPITFLSLKLRLVNILIGALQTETDPNNTQMILGAMLNIVQDSALLEAIGCQMEMGGGENNLKSHSRTNSGISSASGGSTEPTTPDSERPAQALLRDYALNTDSAAGLLIRSIHLVTQRLNSQWRQDMSISLAALELLSGLAKVKVMVDSGDRKRAISSVCTYIVYQCSRPAPLHSRDLHSMIVAAFQCLCVWLTEHPDMLDEKDCLKEVLEIVELGISGSKSKNNEQEVKYKGDKEPNPASMRVKDAAEATLTCIMQLLGAFPSPSGPASPCSLVNETTLIKYSRLPTINKHSFRYFVLDNSVILAMLEQPLGNEQNDFFPSVTVLVRGMSGRLAWAQQLCLLPRGAKANQKLFVPEPRPVPKNDVGFKYSVKHRPFPEEVDKIPFVKADLSIPDLHEIVTEELEERHEKLRSGMAQQIAYEIHLEQQSEEELQKRSFPDPVTDCKPPPPAQEFQTARLFLSHFGFLSLEALKEPANSRLPPHLIALDSTIPGFFDDIGYLDLLPCRPFDTVFIFYMKPGQKTNQEILKNVESSRTVQPHFLEFLLSLGWSVDVGRHPGWTGHVSTSWSINCCDDGEGSQQEVISSEDIGASIFNGQKKVLYYADALTEIAFVVPSPVESLTDSLESNISDQDSDSNMDLMPGILKQPSLTLELFPNHTDNLNSSQRLSPSSRMRKLPQGRPVPPLGPETRVSVVWVERYDDIENFPLSELMTEISTGVETTANSSTSLRSTTLEKEVPVIFIHPLNTGLFRIKIQGATGKFNMVIPLVDGMIVSRRALGFLVRQTVINICRRKRLESDSYSPPHVRRKQKITDIVNKYRNKQLEPEFYTSLFQEVGLKNCSS
With B1, in experiment [1], the binding result is “binds”.

B2: RGβ^hug (aa 973-1118), transiently expressed in HEK293T cells for co-immunoprecipitation (domain or fragment, UniProt Q86X10 973-1118)
chain: SVTVLVRGMSGRLAWAQQLCLLPRGAKANQKLFVPEPRPVPKNDVGFKYSVKHRPFPEEVDKIPFVKADLSIPDLHEIVTEELEERHEKLRSGMAQQIAYEIHLEQQSEEELQKRSFPDPVTDCKPPPPAQEFQTARLFLSHFGFL
On to B2, for which, in experiment [2], the binding entry is on record as “binds”.

B3: RGβ^hug (aa 973-1118), co-expressed and co-purified with RGα2 (domain or fragment, UniProt Q86X10 973-1118)
chain: B2 chain
In the case of B3, in experiment [3], the binding result was “binds”.

B4: RGβ^Δhug (lacking aa 1004-1099) (protein, UniProt Q86X10)
chain: MYSEWRSLHLVIQNDQGHTSVLHSYPESVGREVANAVVRPLGQVLGTPSVAGSENLLKTDKEVKWTMEVICYGLTLPLDGETVKYCVDVYTDWIMALVLPKDSIPLPVIKEPNQYVQTILKHLQNLFVPRQEQGSSQIRLCLQVLRAIQKLARESSLMARETWEVLLLFLLQINDILLAPPTVQGGIAENLAEKLIGVLFEVWLLACTRCFPTPPYWKTAKEMVANWRHHPAVVEQWSKVICALTSRLLRFTYGPSFPAFKVPDEDASLIPPEMDNECVAQTWFRFLHMLSNPVDLSNPAIISSTPKFQEQFLNVSGMPQELNQYPCLKHLPQIFFRAMRGISCLVDAFLGISRPRSDSAPPTPVNRLSMPQSAAVSTTPPHNRRHRAVTVNKATMKTSTVSTAHASKVQHQTSSTSPLSSPNQTSSEPRPLPAPRRPKVNSILNLFGSWLFDAAFVHCKLHNGINRDSSMTAITTQASMEFRRKGSQMSTDTMVSNPMFDASEFPDNYEAGRAEACGTLCRIFCSKKTGEEILPAYLSRFYMLLIQGLQINDYVCHPVLASVILNSPPLFCCDLKGIDVVVPYFISALETILPDRELSKFKSYVNPTELRRSSINILLSLLPLPHHFGTVKSEVVLEGKFSNDDSSSYDKPITFLSLKLRLVNILIGALQTETDPNNTQMILGAMLNIVQDSALLEAIGCQMEMGGGENNLKSHSRTNSGISSASGGSTEPTTPDSERPAQALLRDYALNTDSAAGLLIRSIHLVTQRLNSQWRQDMSISLAALELLSGLAKVKVMVDSGDRKRAISSVCTYIVYQCSRPAPLHSRDLHSMIVAAFQCLCVWLTEHPDMLDEKDCLKEVLEIVELGISGSKSKNNEQEVKYKGDKEPNPASMRVKDAAEATLTCIMQLLGAFPSPSGPASPCSLVNETTLIKYSRLPTINKHSFRYFVLDNSVILAMLEQPLGNEQNDFFPSVTVLVRGMSGRLAWAQQLCLLPRGAKANQKPPAQEFQTARLFLSHFGFLSLEALKEPANSRLPPHLIALDSTIPGFFDDIGYLDLLPCRPFDTVFIFYMKPGQKTNQEILKNVESSRTVQPHFLEFLLSLGWSVDVGRHPGWTGHVSTSWSINCCDDGEGSQQEVISSEDIGASIFNGQKKVLYYADALTEIAFVVPSPVESLTDSLESNISDQDSDSNMDLMPGILKQPSLTLELFPNHTDNLNSSQRLSPSSRMRKLPQGRPVPPLGPETRVSVVWVERYDDIENFPLSELMTEISTGVETTANSSTSLRSTTLEKEVPVIFIHPLNTGLFRIKIQGATGKFNMVIPLVDGMIVSRRALGFLVRQTVINICRRKRLESDSYSPPHVRRKQKITDIVNKYRNKQLEPEFYTSLFQEVGLKNCSS
As for B4, the binding result in experiment [2] is reported as “binds weakly”; in experiment [4], “no binding”.

B5: RGβ^SD-hug-pGAP (aa 881-1495), co-expressed and co-purified with RGα2 (domain or fragment, UniProt Q86X10 881-1494)
chain: KYKGDKEPNPASMRVKDAAEATLTCIMQLLGAFPSPSGPASPCSLVNETTLIKYSRLPTINKHSFRYFVLDNSVILAMLEQPLGNEQNDFFPSVTVLVRGMSGRLAWAQQLCLLPRGAKANQKLFVPEPRPVPKNDVGFKYSVKHRPFPEEVDKIPFVKADLSIPDLHEIVTEELEERHEKLRSGMAQQIAYEIHLEQQSEEELQKRSFPDPVTDCKPPPPAQEFQTARLFLSHFGFLSLEALKEPANSRLPPHLIALDSTIPGFFDDIGYLDLLPCRPFDTVFIFYMKPGQKTNQEILKNVESSRTVQPHFLEFLLSLGWSVDVGRHPGWTGHVSTSWSINCCDDGEGSQQEVISSEDIGASIFNGQKKVLYYADALTEIAFVVPSPVESLTDSLESNISDQDSDSNMDLMPGILKQPSLTLELFPNHTDNLNSSQRLSPSSRMRKLPQGRPVPPLGPETRVSVVWVERYDDIENFPLSELMTEISTGVETTANSSTSLRSTTLEKEVPVIFIHPLNTGLFRIKIQGATGKFNMVIPLVDGMIVSRRALGFLVRQTVINICRRKRLESDSYSPPHVRRKQKITDIVNKYRNKQLEPEFYTSLFQEVGLKNCSS
Turning to B5, in experiment [3], the binding entry is “binds”.

B6: κB-Ras2 (protein, UniProt Q9NYR9 1-191)
chain: MGKSCKVVVCGQASVGKTSILEQLLYGNHVVGSEMIETQEDIYVGSIETDRGVREQVRFYDTRGLRDGAELPRHCFSCTDGYVLVYSTDSRESFQRVELLKKEIDKSKDKKEVTIVVLGNKCDLQEQRRVDPDVAQHWAKSEKVKLWEVSVADRRSLLEPFVYLASKMTQPQSKSAFPLSRKNKGSGSLDG
With B6, the binding result in experiment [1] is on record as “binds”.

B7: RGβ^cHEAT-SD-hug-pGAP (aa 576-1494), co-expressed and co-purified with RGα2 (domain or fragment, UniProt Q86X10 576-1494)
chain: KGIDVVVPYFISALETILPDRELSKFKSYVNPTELRRSSINILLSLLPLPHHFGTVKSEVVLEGKFSNDDSSSYDKPITFLSLKLRLVNILIGALQTETDPNNTQMILGAMLNIVQDSALLEAIGCQMEMGGGENNLKSHSRTNSGISSASGGSTEPTTPDSERPAQALLRDYALNTDSAAGLLIRSIHLVTQRLNSQWRQDMSISLAALELLSGLAKVKVMVDSGDRKRAISSVCTYIVYQCSRPAPLHSRDLHSMIVAAFQCLCVWLTEHPDMLDEKDCLKEVLEIVELGISGSKSKNNEQEVKYKGDKEPNPASMRVKDAAEATLTCIMQLLGAFPSPSGPASPCSLVNETTLIKYSRLPTINKHSFRYFVLDNSVILAMLEQPLGNEQNDFFPSVTVLVRGMSGRLAWAQQLCLLPRGAKANQKLFVPEPRPVPKNDVGFKYSVKHRPFPEEVDKIPFVKADLSIPDLHEIVTEELEERHEKLRSGMAQQIAYEIHLEQQSEEELQKRSFPDPVTDCKPPPPAQEFQTARLFLSHFGFLSLEALKEPANSRLPPHLIALDSTIPGFFDDIGYLDLLPCRPFDTVFIFYMKPGQKTNQEILKNVESSRTVQPHFLEFLLSLGWSVDVGRHPGWTGHVSTSWSINCCDDGEGSQQEVISSEDIGASIFNGQKKVLYYADALTEIAFVVPSPVESLTDSLESNISDQDSDSNMDLMPGILKQPSLTLELFPNHTDNLNSSQRLSPSSRMRKLPQGRPVPPLGPETRVSVVWVERYDDIENFPLSELMTEISTGVETTANSSTSLRSTTLEKEVPVIFIHPLNTGLFRIKIQGATGKFNMVIPLVDGMIVSRRALGFLVRQTVINICRRKRLESDSYSPPHVRRKQKITDIVNKYRNKQLEPEFYTSLFQEVGLKNCSS
Regarding B7, in experiment [3], the binding entry is given as “binds”.
